# In all, about 420,000 compounds went through this assay and about 50,000 (12%) were called active. The shares of active, inactive and inconclusive entries below differ from those in the screen. Calls follow the shape of the dose curve; as a rule, active = well fitted inhibition curve with a large enough effect; inconclusive = small, poorly fitted or top-dose-only effect; inactive = flat fitted curve, though single readings scatter. Potencies of inconclusive entries are left out as doubtful fits.
# Test: qHTS for Inhibitors of human tyrosyl-DNA phosphodiesterase 1 (TDP1): qHTS in cells in presence of CPT; also: nearly all actives have a fitted effect of over 55% in size
# Conditions: chicken DT40 Tdp1-/-;hTDP1 cells + 20 nM CPT, ATP luminescence, 48 h; activity change, negative = growth inhibition: at 46.2 µM (top of the series) unless noted
# Summary of the method: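 Chicken DT40 Tdp1-/- cells stably complemented with human TDP1 were seeded at 400 cells/well in medium containing 20 nM camptothecin, exposed to pin-transferred compounds, and grown at 37 °C for at least 48 hr. Viability was read as ATP luminescence.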
# % is scaled to controls: 0 for no effect and ±100 for the full control effect; potency is read from the fitted curve at half-maximal effect; tags tell the direction and shape of the fitted curve.
Compound,Potency,"activity change, negative = growth inhibition"
ClN=C1C=CC=CC1=NCl,active: 16.4 µM,–
O=c1cc(N/N=C/c2ccccc2)[nH]c(=O)[nH]1,active: 4.11 µM,–
CCOC(=O)c1cc(NC(=O)Nc2ccccn2)c(C)nc1C,"inconclusive [inhibitor, partial curve, poor fit]",–
COc1ccc(C(=O)c2c[nH]c(C(=O)N=CN(C)C)c2)cc1,inactive,–
C#CCn1c2ccccc2c(=O)n1C(C)C,"inconclusive [inhibitor, single point]",–
CCN(CC)CCCN(Cc1cc2cc(OC)ccc2[nH]c1=O)C(=O)Nc1ccc(F)cc1,active: 16.4 µM,–
Cc1ccccc1NS(=O)(=O)c1ccc(C(=O)NCc2ccccc2CN2CCCC2)cc1,"inconclusive [inhibitor, single point]",–
Cc1ccc(Cl)c2c1NC(=O)C2=O,"inconclusive [inhibitor, single point]",–
O=C(Nc1cccc(S(=O)(=O)NCc2ccco2)c1)c1cccc(Cl)c1,"inconclusive [inhibitor, single point]",–
CCOc1cc(S(=O)(=O)NC2CCCCC2)ccc1F,"inconclusive [inhibitor, full curve, poor fit]",–
COc1ccccc1/C=N/NC(=O)CCn1cnc2ccccc21,"inconclusive [inhibitor, full curve, poor fit]",–
CCCC(C)C(=O)Nc1nc(C)c(-c2csc(Nc3ccccc3OC)n2)s1 (stereo unspecified),active: 16.4 µM,–
O=C(O)/C=C1\CCCc2ccccc2[C@H]1O,inactive,–
Cc1nc2cnc(N3CCOCC3)nc2n(CCC#N)c1=O,"inconclusive [inhibitor, single point]",–
COc1ccccc1NC(CC(=O)c1ccccc1)C(=O)OCC(=O)c1ccc(Br)cc1 (stereo unspecified),"inconclusive [inhibitor, single point]",–
CCc1ccccc1-n1c(SCC(=O)NC)nnc1-c1ccco1,inactive,–
Cc1c(S(=O)(=O)N2CCCCC2)c(=O)n(C)c(=O)n1C,inactive,–
COCCN1CCN(C(=O)C2CCC(=O)N(CCc3cccc(F)c3)C2)CC1 (stereo unspecified),inactive,–
Cc1c(C(=O)CN2CCSCC2)c2ccccc2n1C,inactive,–
O=C1NC[C@H](Cc2ccccc2)N(CC2CCN(CCC34CC5CC(CC(C5)C3)C4)CC2)C1=O,active: 20.6 µM,–
COc1cc2c(C(=O)N3CCN(c4cccc(C)c4)C(C)C3)cn(CC(C)C)c(=O)c2cc1OC (stereo unspecified),active: 14.6 µM,–
CCc1nc(OCc2ccccc2)c2sc3nc4c(cc3c2n1)COC(C)(C)C4,active: 29.1 µM,–
CCc1ccccc1N(CC(=O)NC(C)(C)C)C(=O)CCC(=O)Nc1ccccn1,inactive,–
CN(Cc1ccccc1F)C(=O)CCCNC(=O)c1ccc(Cl)cc1,"inconclusive [inhibitor, single point]",–
CC(=O)CC(=O)Nc1ccc(C(N)=O)cc1,inactive,–
O=C(CSc1nc2c([nH]c3ccccc32)c(=O)n1-c1cccc(Cl)c1)N1CCc2ccccc21,"inconclusive [inhibitor, full curve]",–

Compound,Potency,"activity change, negative = growth inhibition"
CCOC(=O)c1ccc(-c2c(-c3ccccc3OC)sc3cc4c(cc23)OCO4)cc1F,"inconclusive [inhibitor, single point]",–
Cc1cc(C)cc(C(O)c2ncc(-c3cccc(F)c3)[nH]2)c1 (stereo unspecified),"inconclusive [inhibitor, partial curve]",–
CCOC(=O)c1c(NC(=O)C2C3CCC(O3)C2C(=O)O)sc(C)c1-c1ccc(C)cc1 (stereo unspecified),inactive,–
O=C1CCCCC1(c1ccccc1)c1ccccc1,inactive,–
CCOc1ccc(C(=O)c2ccc(O)c(O)c2O)cc1,"inconclusive [inhibitor, single point]",–
CCc1nnc(NC(=O)c2nc(S(C)(=O)=O)ncc2Cl)s1,active: 5.8 µM,–
CCOC(=O)c1c(-c2ccc(C)o2)csc1NC(=O)CN1CCN(CC)CC1,"inconclusive [inhibitor, single point]",–
COc1ccc(C)cc1Nc1n[n+](-c2ccccc2)c(-c2ccc(C(=O)O)cc2)s1,inactive,–
Cc1ccc(/C=C2/NC(=O)N(Cc3ccccc3)C2=O)s1,"inconclusive [inhibitor, single point]",–
Cc1ccc2nc(NCc3ccccc3Cl)c3nnnn3c2c1,"inconclusive [inhibitor, full curve]",–
Cc1ccc(C(=O)NCCN2CCC(n3c(=O)[nH]c4ccccc43)CC2)cc1C,"inconclusive [inhibitor, partial curve, poor fit]",–
CSc1ccc(CN(C)C(=O)C(Cc2ccccc2)NC(=O)c2ccccc2)cc1 (stereo unspecified),"inconclusive [inhibitor, single point]",–
Cc1cc(Nc2ccc(F)cc2F)n2ncnc2n1,"inconclusive [inhibitor, partial curve, poor fit]",–
CC1CCCN(C(=O)C(=O)c2cn(CC(=O)N3CCCCCC3)c3ccccc23)C1 (stereo unspecified),"inconclusive [inhibitor, single point]",–
O=C(Cn1cnc2ccccc21)Nc1ccccc1-c1ccccc1,"inconclusive [inhibitor, single point]",–
COc1cccc(Cc2nc3ccccc3nc2SCC(=O)N2CCCCC2C)c1 (stereo unspecified),"inconclusive [inhibitor, single point]",–
CCn1c(=O)cc(SCC(=O)N2CCN(Cc3ccc4c(c3)OCO4)CC2)c2ccccc21,"inconclusive [inhibitor, single point]",–
O=C(Nc1ccc(N2CCOCC2)cc1)c1ccccc1SCC(=O)N1CCCC1,inactive,–
COc1cccc(C(=O)CN2CCN(S(=O)(=O)c3ccc(Cl)cc3)CC2)c1,"inconclusive [inhibitor, single point]",–
Cc1ccc(-c2csc(C(O)c3ccccc3)n2)cc1C (stereo unspecified),"inconclusive [inhibitor, single point]",–
O=C(Cc1ccc(-c2ccccc2)cc1)NCc1ccccc1,active: 0.517 µM,–
CC(C)n1cnnc1SCC(=O)Nc1ccc(N2CCCCC2)cc1,inactive,–
COc1cc(Cl)c(C)cc1NC(=O)CSC,inactive,–
CC(C)(C)Sc1ccc2nc3c(n2c1)CCCC3,active: 20.6 µM,–
CC(=O)Nc1ccc(Nc2cc(C)nc3c(-c4ccc(Cl)cc4)c(C)nn23)cc1,"inconclusive [inhibitor, single point]",–
CC(C(=O)NC1CCCC1)N1C(=O)c2cccc3cccc1c23 (stereo unspecified),–,inconclusive: -33.4% [inhibitor]

Compound,Potency,"activity change, negative = growth inhibition"
CCCn1c(SCC(=O)NCCc2ccc(Cl)cc2Cl)n[nH]c1=O,inactive,–
O=C(CSc1nncs1)NC1CCCCCCC1,"inconclusive [inhibitor, single point]",–
COc1ccc(OC)c(CNc2nc3ccccc3n2CCN2CCCCC2)c1,"inconclusive [inhibitor, single point]",–
COc1ccc2nc(NC(=O)CC3Oc4ccccc4NC3=O)sc2c1 (stereo unspecified),inactive,–
CCOc1ccc(N=C2NC(=O)S/C2=C\c2ccc(N(C)C)cc2)cc1,inactive,–
CCN(c1ccccc1)S(=O)(=O)c1cc(C(=O)NCc2ccco2)ccc1C,"inconclusive [inhibitor, single point]",–
O=C(CN1C(=O)CSc2ccc(S(=O)(=O)N3CCCCC3)cc21)NCc1ccc(F)cc1Cl,active: 23.1 µM,–
O=C(NCc1ccco1)c1ccc2c(c1)N(Cc1ccc(F)cc1)C(=O)c1ccccc1S2=O (stereo unspecified),"inconclusive [inhibitor, single point]",–
COc1cccc(-c2nn(-c3ccccc3)cc2/C=C(\C#N)C(=O)NCCCn2ccnc2)c1,"inconclusive [inhibitor, single point]",–
Cc1ccc(-n2c(N)c(C(=O)NCc3ccco3)sc2=S)cc1,"inconclusive [inhibitor, partial curve]",–
O=[N+]([O-])c1cc(-c2nnc(N3CCOCC3)c3ccccc23)ccc1N1CCOCC1,"inconclusive [inhibitor, single point]",–
COc1cc2ccccc2cc1C(=O)Nc1ccc2oc(-c3cc(Br)ccc3Cl)nc2c1,"inconclusive [inhibitor, single point]",–
COC(=O)c1nn2c(C(F)(F)F)cc(-c3ccc(Br)o3)nc2c1Br,"inconclusive [inhibitor, single point]",–
COC(=O)c1cc(Cl)cc2c(C)c(C3(O)CCCCC3)[nH]c12,"inconclusive [inhibitor, single point]",–
CC(C)(C)NNC(=S)Nc1ccc(S(=O)(=O)N2CCOCC2)cc1,inactive,–
O=C(c1ccco1)c1cn(CCOc2ccc(Cl)cc2)c2ccccc12,"inconclusive [inhibitor, single point]",–
Cc1ccc(S(=O)(=O)NCc2cccnc2)cc1,inactive,–
Cc1cccc(C(=O)NCC(c2ccc3c(c2)OCO3)N2CCOCC2)c1 (stereo unspecified),"inconclusive [inhibitor, single point]",–
COc1ccccc1Nc1nc(C)cs1,inactive,–
O=S(=O)(c1ccc(N2CCN(CCO)CC2)nc1)N1CCOCC1,inactive,–
N=c1oc2ccc3ccccc3c2cc1-c1nc(-c2ccccc2)cs1,"inconclusive [inhibitor, single point]",–
Cn1c(=O)c(-c2ccc(F)cc2)nc2cncnc21,inactive,–
c1ccc(C2=NNC(c3ccccn3)=NN2)nc1,active: 9.2 µM,–
COc1ccc(C(CNC(=O)c2ccc(C)cc2)N2CCOCC2)cc1 (stereo unspecified),"inconclusive [inhibitor, single point]",–

# Reference: PubChem BioAssay AID686979 (National Center for Advancing Translational Sciences (NCATS), 2013)
